Measurements published in PubChem BioAssay (NCATS).
Where “and” joins values, the source holds several entries; their conditions need not be identical. Equal values may be shown once. The shares of active, inactive and inconclusive entries below differ from those in the screen. For some of these results: Potencies beside an inconclusive call are fits to weak or partial responses and may not hold up. Calls of active or inactive are those of the source. Calls come from the whole dose curve; as a rule, active = well fitted curve in the direction sought with a large enough effect; inconclusive = small, poorly fitted or top-dose-only effect, or another doubt; inactive = no such curve, though single readings can be large; an effect the other way counts as inactive or inconclusive.

Tests used:
[1] = P-glycoprotein substrates identified in KB-8-5-11 adenocarcinoma cell line, qHTS therapeutic library screen (AID 1346987); conditions: KB-8-5-11 (P-gp overexpressing) viability, CellTiter-Glo, 72 h; series mostly up to 44.5 µM; note: potency is the fitted concentration of half-maximal effect; nearly all actives have a fitted effect of over 65% in size
Summary of the method: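 Compounds are pinned in dose-response onto KB-8-5-11 cells (500 cells/well, colchicine-free medium) and left 72 h at 37 degree C. CellTiter-Glo luminescence then yields AC50 values.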

CRL-7250 = normal cell line; experiment: Cytotoxic Profiling of Annotated Libraries Using Quantitative High-Throughput Screening (AID 1296008); conditions: Five cell lines viability, CellTiter-Glo ATP luminescence, 48-72 h; max response: stronger effect = lower value; note: nearly all actives have a fitted effect of over 60% in size; note: potency is the fitted concentration of half-maximal effect; for max response: % is set by controls: 0 for no effect and ±100 for the full control effect
Summary of the method: (§1)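 Compounds were pin-transferred onto cells and incubated 48 or 72 hr at 37 degree Celsius, 95% humidity. CellTiter-Glo was added, plates sat 10 min at room temperature, then ATP-coupled luminescence was imaged as the viability read-out.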

HEK293 = experiment: as above; conditions: Five cell lines viability, CellTiter-Glo ATP luminescence, 48-72 h; max response: stronger effect = lower value
Summary of the method: as §1

KB-3-1 = experiment: as above; conditions: Five cell lines viability, CellTiter-Glo ATP luminescence, 48-72 h; max response: stronger effect = lower value
Summary of the method: as §1

C33A = experiment: Primary qHTS to identify gynecologic anti-cancer compounds using libraries of approved drugs and bioactive compounds (AID 1345084); conditions: Gynecologic cancer cell panel viability, ATPlite luminescence, 48 h; series mostly up to 57.5 µM; note: potency is the fitted concentration of half-maximal effect; nearly all actives have a fitted effect of over 55% in size
Summary of the method: (§2)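 48 h compound exposure at 37 C, 5% CO2; five-point qHTS. ATPlite luminescence readout of cell ATP.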

CAOV3 = experiment: as above; conditions: Gynecologic cancer cell panel viability, ATPlite luminescence, 48 h; series mostly up to 57.5 µM
Summary of the method: as §2

Es-2 = experiment: as above; conditions: Gynecologic cancer cell panel viability, ATPlite luminescence, 48 h; series mostly up to 57.5 µM
Summary of the method: as §2

Hek293T = experiment: as above; conditions: Gynecologic cancer cell panel viability, ATPlite luminescence, 48 h, control line for the selectivity index; series mostly up to 57.5 µM
Summary of the method: as §2

OV90 = experiment: as above; conditions: Gynecologic cancer cell panel viability, ATPlite luminescence, 48 h; series mostly up to 57.5 µM
Summary of the method: as §2

PA-1 = experiment: as above; conditions: Gynecologic cancer cell panel viability, ATPlite luminescence, 48 h; series mostly up to 57.5 µM
Summary of the method: as §2

SKOV3 = experiment: as above; conditions: Gynecologic cancer cell panel viability, ATPlite luminescence, 48 h; series mostly up to 57.5 µM
Summary of the method: as §2

Tov-21-G = experiment: as above; conditions: Gynecologic cancer cell panel viability, ATPlite luminescence, 48 h; activity change, negative = cytotoxicity: at 57.5 µM (top of the series)
Summary of the method: as §2

Tov112D = experiment: as above; conditions: Gynecologic cancer cell panel viability, ATPlite luminescence, 48 h; activity change, negative = cytotoxicity: at 57.5 µM (top of the series)
Summary of the method: as §2

[2] = Primary qHTS for inhibitors of nuclear receptor binding SET domain protein 2 (NSD2) in an isogenic RCH-ACV NSD2 p.E1099K mutant (9B) (AID 1645876); conditions: RCH-ACV NSD2 E1099K (9B) viability, CellTiter-Glo, 72 h; series mostly up to 44.9 µM; note: potency is the fitted concentration of half-maximal effect; nearly all actives have a fitted effect of over 70% in size
[3] = Primary qHTS for inhibitors of nuclear receptor binding SET domain protein 2 (NSD2) in an RCH-ACV wild type WT cells (2C) (AID 1645877); conditions: RCH-ACV (leukaemia line) NSD2 WT (2C) viability, CellTiter-Glo, 72 h; activity change, negative = cell killing: at 44.9 µM (top of the series); series mostly up to 44.9 µM; note: nearly all actives have a fitted effect of over 70% in size; note: potency is the fitted concentration of half-maximal effect; for activity change, negative = cell killing: % is set by controls: 0 for no effect and ±100 for the full control effect
JEG-3 = experiment: Primary qHTS to identify gynecologic anti-cancer compounds using libraries of approved drugs and bioactive compounds (AID 1345084); conditions: Gynecologic cancer cell panel viability, ATPlite luminescence, 48 h; series mostly up to 57.5 µM; note: potency is the fitted concentration of half-maximal effect; nearly all actives have a fitted effect of over 55% in size
Summary of the method: as §2

CASKI = experiment: as above; conditions: Gynecologic cancer cell panel viability, ATPlite luminescence, 48 h; activity change, negative = cytotoxicity: at 57.5 µM (top of the series)
Summary of the method: as §2

[4] = Primary fluorescence-based thiol-reactive (MSTI) qHTS assay for identification of artifact compounds. (AID 1845221); conditions: MSTI thiol-reactivity probe, 1 h; series mostly up to 53.8 µM;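 note: thiol-reactive compounds lower the probe fluorescence signal; nearly all actives have a fitted effect of over 65% in size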
Summary of the method: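 First, 4 uM MSTI in 2% DMSO/PBS pH 7.4 was dispensed; next, compounds were added; then plates sat 1 h at room temperature without light. Finally, emission at 598 nm was recorded.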
Tags give direction and shape of the fitted curve.

For `CCNC(=O)Nc1ccc(-c2nc3c(c(N4CCOCC4C)n2)CCN(C2COC2)C3)cc1` (stereo not drawn), the Potency [1] was active: 1.84 µM, the Potency (CRL-7250) was active: 0.206 µM and the Potency (HEK293) was active: 1.46 µM. The Potency (KB-3-1) was inconclusive: 1.46 µM [inhibitor, full curve], the Potency (C33A) was inconclusive: 3.98 µM [cytotoxic, partial curve, poor fit] and the Potency (CAOV3) was inconclusive: 8.91 µM [cytotoxic, partial curve]. The Potency (Es-2) was inconclusive: 2 µM [cytotoxic, full curve], the Potency (Hek293T) was active: 2.82 µM and the Potency (OV90) was inconclusive: 1.41 µM [cytotoxic, full curve]. For the same compound, the Potency (PA-1) was active: 2.24 µM, the Potency (SKOV3) was inconclusive: 1.78 µM [cytotoxic, full curve, poor fit] and the Potency (Tov-21-G) was inconclusive: 1.41 µM [cytotoxic, full curve]. The Potency (Tov112D) was inconclusive: 1.41 µM [cytotoxic, full curve].
With `O=C(N[C@@H]1CCCc2c1cnn2-c1ccc(F)cc1F)c1ccccn1` the Potency [1] was inconclusive: 8.2 µM [inhibitor, partial curve], the Potency [2] was inconclusive: 18.3 µM [inhibitor, partial curve] and the Potency [3] was inconclusive: 18.3 µM [inhibitor, partial curve]. For the same compound, the Potency (CRL-7250) was inconclusive: 20.6 µM [inhibitor, single point], the Potency (HEK293) was inconclusive: 23.1 µM [inhibitor, single point] and the Potency (KB-3-1) was inconclusive: 11.6 µM [inhibitor, partial curve]. The Potency (Hek293T) was inconclusive: 39.8 µM [cytotoxic, single point], the Potency (JEG-3) was inconclusive: 35.5 µM [rising, single point] and the Potency (SKOV3) was inconclusive: 35.5 µM [cytotoxic, single point].
With `OC(c1ccc(-c2ccc(CN3CCN(Cc4ccncc4)CC3)cc2)c(F)c1)(C(F)(F)F)C(F)(F)F` the Potency [2] was inconclusive: 1.83 µM [inhibitor, full curve, poor fit], the Potency [3] was inconclusive: 2.05 µM [inhibitor, partial curve, poor fit] and inactive and the Potency (CRL-7250) was inconclusive: 25.9 µM [inhibitor, partial curve, poor fit]. The Potency (HEK293) was active: 5.17 µM, the Potency (KB-3-1) was inconclusive: 11.6 µM [inhibitor, partial curve, poor fit] and the Potency (PA-1) was inconclusive: 3.16 µM [cytotoxic, partial curve, poor fit].
In the case of `O=C1OC2(c3ccccc31)c1cc(I)c(O)c(I)c1Oc1c2cc(I)c(O)c1I`, the Potency [1] is reported as inconclusive: 14.6 µM [inhibitor, partial curve], the Potency [2] is reported as inconclusive: 29.9 µM [inhibitor, single point] and the Potency [3] is reported as inconclusive: 29.9 µM [inhibitor, single point]. For the same compound, the Potency (CRL-7250) was inconclusive: 29.9 µM [inhibitor, single point], the Potency (HEK293) was inconclusive: 16.8 µM [inhibitor, partial curve, poor fit] and the Potency (KB-3-1) was inconclusive: 11.6 µM [inhibitor, partial curve, poor fit].
With `CC(C(O)c1ccccc1)N(C)CCOC(c1ccccc1)c1ccccc1` (stereo not drawn) the Potency [2] was active: 16.3 µM, the Potency (CRL-7250) was inconclusive: 23.1 µM [inhibitor, single point] and the Potency (HEK293) was active: 13 µM. The Potency (KB-3-1) was inconclusive: 29.1 µM [inhibitor, single point], the Potency (C33A) was inconclusive: 31.6 µM [cytotoxic, single point] and the Potency (CAOV3) was inconclusive: 31.6 µM [cytotoxic, single point]. For the same compound, the Potency (CASKI) was inconclusive: 39.8 µM [cytotoxic, single point], the Potency (Hek293T) was inconclusive: 25.1 µM [cytotoxic, single point] and the Potency (JEG-3) was inconclusive: 39.8 µM [cytotoxic, single point]. For the same compound, the Potency (OV90) was inconclusive: 22.4 µM [cytotoxic, single point] and the Potency (SKOV3) was active: 20 µM.
With `CCOP(=O)(Cc1ccc(C(=O)Nc2ccc(Br)cc2C#N)cc1)OCC` the Potency [1] was inconclusive: 7.96 µM [inhibitor, partial curve], the Potency [2] was inconclusive: 10 µM [inhibitor, partial curve, poor fit] and the Potency [3] was inconclusive: 17.8 µM [inhibitor, partial curve, poor fit]. For the same compound, the Potency (CRL-7250) was inconclusive: 12.6 µM [inhibitor, single point], the Potency (HEK293) was inconclusive: 8.93 µM [inhibitor, single point] and the Potency (KB-3-1) was inconclusive: 11.2 µM [inhibitor, single point]. For the same compound, the Potency (C33A) was inconclusive: 3.98 µM [cytotoxic, single point] and the Potency (SKOV3) was inconclusive: 20 µM [cytotoxic, single point].
For `c1ccc(CN(CC2=NCCN2)c2ccccc2)cc1`, the max response (CRL-7250) was inactive: 3.95% and inactive: 1.52%, the max response (HEK293) was inactive: 0.31% and inactive: -21.2% and the max response (KB-3-1) was inactive: -11.4% and inactive: 8.49%. The Potency (CAOV3) was inconclusive: 22.4 µM [cytotoxic, single point], the Potency (JEG-3) was inconclusive: 22.4 µM [cytotoxic, single point] and the Potency (OV90) was inconclusive: 39.8 µM [cytotoxic, single point]. The Potency (SKOV3) was inconclusive: 39.8 µM [cytotoxic, single point], the Potency (Tov-21-G) was inconclusive: 35.5 µM [cytotoxic, single point] and the Potency (Tov112D) was inconclusive: 35.5 µM [cytotoxic, single point].
With `CNc1nc(NCc2ccc(NS(C)(=O)=O)cc2Cl)cc(-c2ccccn2)n1` the Potency [1] was inconclusive: 23.1 µM [inhibitor, single point], the Potency [3] was active: 7.28 µM and the Potency [4] was “inactive”. For the same compound, the Potency (CRL-7250) was active: 20.6 µM, the Potency (HEK293) was inconclusive: 29.1 µM [inhibitor, single point] and the Potency (KB-3-1) was inconclusive: 23.1 µM [inhibitor, single point]. For the same compound, the Potency (Es-2) was inconclusive: 1 µM [cytotoxic, full curve, poor fit], the Potency (Hek293T) was inconclusive: 25.1 µM [cytotoxic, partial curve, poor fit] and the Potency (OV90) was inconclusive: 0.631 µM [cytotoxic, full curve, poor fit]. The Potency (SKOV3) was inconclusive: 12.6 µM [cytotoxic, partial curve, poor fit] and the Potency (Tov112D) was inconclusive: 28.2 µM [cytotoxic, partial curve, poor fit].
